Assay results taken from the supplement of paper PMC10986608.
The list shows a part of the results. Most values come without repeats; read them as rough.

What follows are compounds tested on Candida albicans DPL-15 (assay: growth (OD600) after compound treatment (apparently relative to screen median) (relative growth (fraction; screen median 1.02)); DPL-15 is a caspofungin-resistant clinical isolate; higher = more fungal growth (less antifungal activity)). Conditions: 25 µM; RPMI 1640; 48 h; 30 °C.

SMILES | growth
CC(C)NC(=O)OC[C@H]1O[C@H](C#Cc2ccc(C(C)(C)C)cc2)C=C[C@H]1O | 0.999
COc1ccc(Cn2nc(-c3ccccc3)cc2Nc2cc(O)cc(O)c2C(=O)N(C)Cc2ccon2)cc1 | 1.05
COc1ccc([C@@]23Oc4cc(OC)cc(OC)c4[C@]2(O)[C@H](O)[C@H](C(=O)N(C)OC)[C@H]3c2c(F)c(F)c(F)c(F)c2F)cc1 | 1.06
COc1ccc(N2C(=O)c3[nH]nc(CC(C)C)c3C2c2ccccc2Cl)cc1 (stereo not given) | 0.987
CCNC(=O)[C@H]1[C@H](C(=O)NCC)[C@@H](c2ccc(OC)c(OC)c2)[C@@H]1c1ccc(OC)c(OC)c1 | 1
COc1cc(/C=C/c2cc(/C=C/c3ccc(O)c(OC)c3)nc(N)n2)ccc1O | 1.01
COc1ccc(N2C(=O)C3=C(C(CC(C)C)=NCCN3)C2c2cccc(C(F)(F)F)c2)cc1 (stereo not given) | 1.02
COc1cc(/C=C/C(=O)/C=C(O)/C=C/c2ccc(O)c(OC)c2)ccc1O | active: 0.205
COc1ccc(N2C(=O)c3[nH]nc(CC(C)C)c3C2c2ccc(C(=O)O)cc2)cc1 (stereo not given) | 0.857
CCOC(=O)COc1ccc(CC=C(C)C)c2c(=O)c3ccccc3oc12 | 1.08
CC(=O)C1=C2C=CCCN2C(=O)NC1c1c(F)cccc1Cl (stereo not given) | 1.1
COc1ccc([C@@]23Oc4cc(OC)cc(OC)c4[C@]2(O)C(=O)[C@H](C(=O)NCCCC2(C)OCCO2)[C@H]3c2ccccc2)cc1 | 0.73
CCCCCOS(=O)(=O)Nc1ccc(C(C)(C)C)cc1 | 1.08
C=C(C)[C@@H]1CC[C@]2(COC(C)=O)CC[C@]3(C)[C@H](CC[C@@H]4[C@@](C)(CCC=O)[C@H](C(C)=O)CC[C@]43C)[C@@H]12 | 1.12
FC(F)(F)c1ccccc1CN1CCCc2nc(-c3ccc(Br)cc3)ccc21 | active: 0.113
Cc1ccc(S(=O)(=O)Oc2c(CC34CCCCC3=Nc3ccc(F)cc34)occc2=O)cc1 (stereo not given) | 1.03
C=CCC(CCc1ccccc1)Nc1ccc(OC)cc1OC (stereo not given) | 1.04
CCOC(=O)N1c2ccccc2C=CC1/C=C/c1cccc(F)c1 (stereo not given) | 1.08
CO[C@H](c1ccccc1Br)[C@H](C)[C@H]1C=C(C(=O)O)[C@@H]2Oc3ccccc3[C@H]12 | 1.13
CC(=O)C1=C(C)N(Cc2ccc(F)cc2)C(=S)NC1c1ccc(Cl)cc1 (stereo not given) | 1.06
O=C1OCc2ccc(C#CCOc3ccc4c(=O)c(Cc5ccncc5)coc4c3)cc21 | 1.12
C#CCC(C)(C)CNC(=O)[C@@H]1C[C@@H](O)CN1C(=O)OCC1c2ccccc2-c2ccccc21 | 1.06
CC(C)Cc1c2c(nn1-c1ccccc1)C(=O)NC2c1ccc(Br)cc1 (stereo not given) | 0.983
COC1=C[C@H](C(=O)NCc2ccc(Br)cc2)[C@H](C)[C@@H](c2ccccc2)CC1=O | 1.09
COc1cccc(N2C(=O)c3[nH]nc(CC(C)C)c3C2C2CCCCC2)c1 (stereo not given) | 1.13

SMILES | growth
COc1ccc(Cn2nc(C3CC3)cc2N)cc1 | 1.1
COc1ccccc1Cn1nc2c(c1C(C)C)C(c1ccccc1)NC2=O (stereo not given) | 1.13
CC1(C)CN=C(c2ccccc2)C2=C(N1)C(=O)N(c1ccccc1)C2c1ccc2c(c1)OCO2 (stereo not given) | 1.1
COc1cc([C@@H]2[C@@H](C(=O)NC3CCCC3)[C@@H](C(=O)NC3CCCC3)[C@@H]2c2cc(OC)c(OC)c(OC)c2)cc(OC)c1OC | 1.01
C=CCNC1=NC(c2cccc(C(F)(F)F)c2)C(C(=O)OC)=C(C)N1C (stereo not given) | 0.881
COc1ccc(C2NC(=S)N(Cc3ccccc3)C(C)=C2C(C)=O)cc1 (stereo not given) | 0.942
CCOC(=O)/C=C/CCC/C=C/C(=O)c1ccccc1 | 0.949
COC(=O)[C@]1([C@H]2CCC(=O)O2)CC(=O)c2c(O)c(Br)cc(Br)c2O1 | 1.17
O=C(CCc1ccco1)NCc1cccc(CNC(=O)CCc2ccco2)c1 | 0.981
C=CCCN1C(=O)[C@H]2[C@H]([C@H]3c4ccccc4[C@]2([C@@H](COC)OC)c2ccccc23)[C@]1(C)O | 0.982
COC(=O)c1cc2c(c3c4ccccc4n(S(=O)(=O)c4ccc(C)cc4)c13)C(=O)N(C)C2 | 1.1
CC(=O)OC[C@H]1O[C@H](c2ccc(C)cc2)C=C[C@@H]1OC(C)=O | 0.949
CCCCCOS(=O)(=O)NC(C)C | 1.16
CCOc1ccc(-n2c(C)c3c(C)nnc(N4CCN(C)CC4)c3c2C)cc1 | 0.961
COC(=O)[C@@]12Oc3ccc(-c4ccc(N5CCN(C(=O)OC(C)(C)C)CC5)nc4)c(O)c3C(=O)C1=C(N)C[C@H](C)[C@H]2O | 0.943
CCN1C(NCc2cccc(C(F)(F)F)c2)=N[C@@H](c2cccc(C(F)(F)F)c2)C(C(=O)OC)=C1C | 0.899
CC[C@@H](C)C(=O)N[C@@H]1CCCN1C(=O)/C=C/c1ccccc1 | 0.931
CC(=O)O[C@@H]1C=C[C@@H](C#Cc2ccc(C(C)(C)C)cc2)O[C@@H]1COS(=O)(=O)c1ccc(C)cc1 | 0.935
COC(=O)[C@H](Cc1ccccc1)N1C[C@@]2(O)CC[C@@H](O)[C@@H](OC)[C@@H]2[C@@](C)(O)[C@@H]1CC=C(C)C | 0.917
C#CCCCC(=O)NCc1ccc(O)c(OC)c1 | 1.11
O=C(c1c(O)cc(O)cc1Nc1ccnn1Cc1ccc(C(F)(F)F)cc1)N1Cc2cccnc2C1 | 0.985
CC(=O)C1=C2C=CCCN2C(=O)NC1c1cc(F)ccc1Br (stereo not given) | 1.27
CCOC(=O)c1cc2nc(SC)[nH]c(=O)c2nc1C(=O)OCC | 1.04
CC(C)C1=C[C@H]2[C@H]3C(=O)C(c4ccccc4)=CC3(c3ccccc3)[C@@H]1C(=O)[C@]2(C)O (stereo not given in full) | 0.999
CC(=O)C1=C(C)N(Cc2ccc(F)cc2)C(=S)NC1c1ccccc1F (stereo not given) | 1.05
